About 260 (0.074%) of roughly 350,000 compounds were called active. Inconclusive results, whose numbers are uncertain, are shown with a selection of clear calls. Calls follow the shape of the dose curve; as a rule, active = well fitted inhibition curve with a large enough effect; inconclusive = small, poorly fitted or top-dose-only effect; inactive = no such curve, though single readings can be large or run the other way. Potencies beside an inconclusive call are fits to weak or partial responses and may not hold up.
Target: Ferritin light chain (Equus caballus) (UniProt P02791)
Chain of UniProt P02791 (P02791 whole entry, looked up): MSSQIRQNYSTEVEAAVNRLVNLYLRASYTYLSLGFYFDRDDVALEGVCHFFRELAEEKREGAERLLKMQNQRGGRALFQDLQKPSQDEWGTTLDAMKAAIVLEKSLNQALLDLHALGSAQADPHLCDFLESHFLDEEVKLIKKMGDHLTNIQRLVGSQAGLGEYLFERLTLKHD
Test: qHTS Assay for Identification of Novel General Anesthetics; also: nearly all actives have a fitted effect of over 20% in size
Conditions: apoferritin/1-aminoanthracene competitive binding, fluorescence; activity change, negative = displacement: at 77.5 µM (top of the series)
Procedure, shortened: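 Probe: 1-aminoanthracene (50% saturated, PBS). Protein: horse-spleen apoferritin, 10 uM. Incubation: 10 min, room temperature. Detection: 380 nm excitation, 535 nm emission. Analysis: normalized response, four-parameter Hill.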
% is scaled to controls: 0 for no effect and ±100 for the full control effect; potency is read from the fitted curve at half-maximal effect; tags tell the direction and shape of the fitted curve.

With COC(=O)CSc1nc2sc3c(c2c(=O)n1-c1ccccc1)CCN(C)C3 as the molecule, how does the “activity change, negative = displacement” value read?
Its value is inactive: -19.7%.

How did the Potency turn out when O=C(CC1N=C2c3ccccc3N=C(SCc3ccc(F)cc3)N2C1=O)NC1CCCCC1 (centres undefined) was run?
Its Potency is inconclusive: 3.55 µM [inhibitor, partial curve].

With CC1CCC(NC(=O)CNC(=O)c2cccs2)CC1 (centres undefined) as the molecule, how does the Potency read?
Its Potency is inconclusive: 28.2 µM [inhibitor, partial curve].

For COC(=O)c1ccccc1NC(=O)C1=CC(c2ccc3c(c2)OCO3)=NS(=O)(=O)N1C, which Potency is on record?
The Potency was inconclusive: 28.2 µM [inhibitor, single point].

For CCn1c(COc2ccccc2C)nnc1SCC(=O)N1CCC(C)CC1, which Potency is on record?
The Potency was inconclusive: 35.5 µM [inhibitor, single point].

With Cc1ccc(NC(=O)CSC2=C(C#N)C(c3ccco3)C3=C(CCCC3=O)N2)cc1 (centres undefined) as the molecule, how does the Potency read?
Its Potency is inconclusive: 17.8 µM [inhibitor, partial curve].

For O=C(NC(Nc1ncc(S(=O)(=O)c2ccc([N+](=O)[O-])cc2)s1)(C(F)(F)F)C(F)(F)F)c1ccc(Cl)cc1, which Potency is on record?
Its Potency is inconclusive: 25.1 µM [inhibitor, partial curve].

Which Potency does the source give for O=S(=O)(NC1CCCCC1)c1ccc(F)c2ccccc12 here?
The Potency was inconclusive: 28.2 µM [inhibitor, partial curve].

With CC(C)(C)NC(=O)/C(=C/c1ccco1)c1ccccc1 as the molecule, how does the “activity change, negative = displacement” value read?
The value was inactive: -16.6%.

How did the “activity change, negative = displacement” value turn out when Cc1ccc2nc(NC(=O)COC(=O)CSc3nc(C)cc(C)n3)sc2c1 was run?
Its value is inactive: -14.1%.

How did the Potency turn out when O=C(c1cc(-c2ccccc2O)on1)N1CCc2ccccc2C1 was run?
The Potency was inconclusive: 14.1 µM [inhibitor, partial curve].

Which Potency does the source give for COc1cc(CNc2ccc3[nH]c(=O)[nH]c3c2)cc(Cl)c1OCC(=O)NC(C)(C)C here?
Its Potency is inconclusive: 35.5 µM [inhibitor, single point].

With C=CCNC(=O)c1onc(CSc2ccc(C(C)C)cc2)c1C(=O)O as the molecule, how does the Potency read?
Its Potency is inconclusive: 31.6 µM [inhibitor, partial curve].

How did the Potency turn out when Cc1nc2ccn(Cc3cccs3)c(=O)c2cc1C(=O)NCc1ccc(Br)cc1 was run?
The Potency was inconclusive: 44.7 µM [inhibitor, single point].

Which Potency does the source give for COc1ccc(CNC(=O)COC(=O)CC2CC3CCC2C3)cc1OC (centres undefined) here?
Its Potency is inconclusive: 17.8 µM [inhibitor, partial curve].

Which Potency does the source give for Cc1cccc(C)c1OCc1nnc(SCC(=O)Nc2nccs2)o1 here?
Its Potency is inconclusive: 12.6 µM [inhibitor, partial curve].

For O=[N+]([O-])c1ccccc1/C=N/N1CCN(c2ccccn2)CC1, which Potency is on record?
The Potency was inconclusive: 35.5 µM [inhibitor, partial curve].

With CCOC(=O)c1c(NC(=S)Nc2ccccc2)sc2c1CCN(CC)C2 as the molecule, how does the Potency read?
The Potency was inconclusive: 31.6 µM [inhibitor, partial curve].

How did the “activity change, negative = displacement” value turn out when COc1ccc2c(c1)NC(c1ccc(N(C)C)cc1)c1cccn1-2 (centres undefined) was run?
The value was inactive: -8.7%.

CCc1nn(CC(=O)N2CCC(C)CC2)c(=O)c2cc3occc3n12 was tested. Which Potency did it give?
The Potency was inconclusive: 35.5 µM [inhibitor, partial curve].

With CCN(C(=O)Cn1c(=O)n(CCCS(=O)(=O)C2CCCCC2)c(=O)c2ccccc21)c1cccc(C)c1 as the molecule, how does the Potency read?
Its Potency is inconclusive: 1.58 µM [inhibitor, full curve].

For O=C(CC1CC2CCC1C2)OCC(=O)c1c[nH]c2ccccc12 (centres undefined), which Potency is on record?
The Potency was inconclusive: 15.8 µM [inhibitor, partial curve].

For Cc1ccc(Cl)cc1Nc1nn2c(=O)c3ccc(C(=O)Nc4ccc(F)cc4)cc3nc2s1, which “activity change, negative = displacement” value is on record?
Its value is inactive: -9.98%.

For Cc1cc(Cl)ccc1NC(=O)Cn1nc(C)c2c(C)n(-c3ccccc3)nc2c1=O, which Potency is on record?
Its Potency is inconclusive: 39.8 µM [inhibitor, single point].

For Cc1cccc2c1NC(=O)C2(O)N1CCCC(C)C1 (centres undefined), which Potency is on record?
Its Potency is inconclusive: 20 µM [inhibitor, partial curve].

With O=C(O)c1ccccc1C(=O)c1ccc2c(c1)N(Cc1ccc(Cl)c(Cl)c1)C(=O)CO2 as the molecule, how does the Potency read?
Its Potency is inconclusive: 20 µM [inhibitor, partial curve].

With Cc1ccc(NC(=S)NCCc2c[nH]c3ccccc23)cc1 as the molecule, how does the Potency read?
The Potency was inconclusive: 17.8 µM [inhibitor, partial curve].

How did the Potency turn out when COc1ccccc1CNC(=O)CCC1N=C2c3ccccc3N=C(SCC(=O)Nc3ccc(F)cc3)N2C1=O (centres undefined) was run?
The Potency was inconclusive: 8.91 µM [inhibitor, full curve].

O=C(O)c1ccccc1C(=O)c1ccc(Cl)cc1 was tested. Which “activity change, negative = displacement” value did it give?
The value was inactive: -1.47%.

For COc1ccc(-n2c(Cc3ccccc3)nnc2SCc2nc(-c3cccs3)no2)cc1, which “activity change, negative = displacement” value is on record?
Its value is inactive: -0.611%.

For CCCC[C@]12Cc3cc(OC)c(OC)cc3C(O1)C1=C(O2)C(=O)c2ccccc2C1=O, which Potency is on record?
The Potency was inconclusive: 3.98 µM [inhibitor, partial curve].

For FC(F)(F)c1nnc(-c2ccccc2)nc1Sc1ccccc1, which Potency is on record?
The Potency was inconclusive: 28.2 µM [inhibitor, partial curve].

Which Potency does the source give for Cc1ccccc1CNS(=O)(=O)c1ccccc1[N+](=O)[O-] here?
The Potency was inconclusive: 28.2 µM [inhibitor, partial curve].

With Cc1ccc(-c2cc(C(=O)NCc3cnn(C)c3C)c3ccccc3n2)cc1C as the molecule, how does the Potency read?
The Potency was inconclusive: 35.5 µM [inhibitor, partial curve].

CNc1ccc(SC#N)cc1 was tested. Which Potency did it give?
Its Potency is inconclusive: 31.6 µM [inhibitor, single point].

For Cn1cccc1C(=O)c1ccc(Cl)cc1Cl, which Potency is on record?
The Potency was inconclusive: 25.1 µM [inhibitor, partial curve].

How did the Potency turn out when Cc1ccc(NC(=O)CN2C(=O)N/C(=C\c3cccn3-c3cccc(C(=O)O)c3)C2=O)cc1 was run?
The Potency was inconclusive: 22.4 µM [inhibitor, partial curve].

Which Potency does the source give for CCOc1ccc(S(=O)(=O)NC2CCCC2)cc1C here?
The Potency was inconclusive: 39.8 µM [inhibitor, partial curve, poor fit].

How did the Potency turn out when CC(/C=C/c1ccco1)=N\NC(=O)CNc1ccc2ccccc2c1 was run?
Its Potency is inconclusive: 35.5 µM [inhibitor, partial curve].

How did the “activity change, negative = displacement” value turn out when N#Cc1c(-c2cccs2)cc(-c2cccnc2)nc1N was run?
Its value is inactive: 7.23%.

How did the Potency turn out when CN(C)CCNC(=O)c1ccc(Sc2ccc(Br)cc2)c([N+](=O)[O-])c1 was run?
Its Potency is inconclusive: 20 µM [inhibitor, partial curve].

For CC(=O)N1CCc2cc(S(=O)(=O)Nc3cccc(C(F)(F)F)c3)ccc21, which Potency is on record?
Its Potency is inconclusive: 12.6 µM [inhibitor, partial curve].

With COc1ccc(N=Cc2sc3ccccc3c2Cl)cc1 as the molecule, how does the Potency read?
The Potency was inconclusive: 15.8 µM [inhibitor, partial curve].

Which “activity change, negative = displacement” value does the source give for CC(/C=N/n1cnnc1)=C\c1ccco1 here?
The value was inactive: -3.55%.

For CCOC(=O)C1(CCOC)CCN(Cc2cccc(OCc3ccccc3)c2)CC1, which “activity change, negative = displacement” value is on record?
Its value is inactive: -8.48%.

With Cc1cccc(NC(=O)CSc2nnc(-c3ccccc3Br)o2)c1C as the molecule, how does the Potency read?
Its Potency is inconclusive: 17.8 µM [inhibitor, partial curve].

How did the “activity change, negative = displacement” value turn out when Cc1ccc(S(=O)(=O)N2CCCCC2)cc1NC(=O)Cn1ccsc1=N was run?
Its value is inactive: -9.26%.

For COc1cc(OC)c(OC)cc1CN1CCc2nc(Nc3ccc4c(c3)OCCO4)ncc2C1, which “activity change, negative = displacement” value is on record?
The value was inactive: -12.4%.

C/C(N)=C(/C#N)C(=O)COC(=O)c1cc2c(s1)CCC(C)C2 (centres undefined) was tested. Which Potency did it give?
Its Potency is inconclusive: 39.8 µM [inhibitor, single point].

For O=C(CSc1nc(-c2ccccc2)c(-c2ccccc2)[nH]1)N1CCN(S(=O)(=O)c2ccccc2)CC1, which “activity change, negative = displacement” value is on record?
Its value is inactive: -17.1%.

For O=C(NCCc1csc(-c2ccc(C(F)(F)F)cc2)n1)c1ccc(F)c(F)c1, which Potency is on record?
The Potency was inconclusive: 6.31 µM [inhibitor, full curve, poor fit].

Cc1ccc(Cc2nc(-c3ccccn3)no2)cc1 was tested. Which Potency did it give?
The Potency was inconclusive: 28.2 µM [inhibitor, partial curve].

Clc1ncn(CCOc2ccccc2)c1Cl was tested. Which Potency did it give?
Its Potency is inconclusive: 22.4 µM [inhibitor, partial curve].

With Cc1nc(Nc2ccncc2)c2oc3ccccc3c2n1 as the molecule, how does the “activity change, negative = displacement” value read?
Its value is inactive: -12.7%.

COc1ccc2[nH]cc(C(=O)CN3CCN(C/C=C/c4ccccc4)CC3)c2c1 was tested. Which Potency did it give?
The Potency was inconclusive: 31.6 µM [inhibitor, partial curve].

Which Potency does the source give for c1ccc2c(Nc3nnc(-c4ccncc4)s3)cccc2c1 here?
Its Potency is inconclusive: 28.2 µM [inhibitor, partial curve].

CC1Cn2c(C(=O)NCCc3ccc(Cl)cc3)cc3cccc(c32)S1 (centres undefined) was tested. Which “activity change, negative = displacement” value did it give?
Its value is inactive: 41.5%.

With CC(C)N1CCN(Cc2cccc(-c3ccco3)c2)CC1CCO (centres undefined) as the molecule, how does the “activity change, negative = displacement” value read?
Its value is inactive: 3.06%.

For COc1ccc(NC(=O)CCS(=O)(=O)c2nc(-c3ccc4c(c3)OCO4)cc(C(F)(F)F)n2)cc1, which “activity change, negative = displacement” value is on record?
The value was inactive: -12.6%.

With Cc1ccc(C)c(Cc2c(C)nc3c(C(=O)N4CCOCC4)cnn3c2C)c1 as the molecule, how does the Potency read?
Its Potency is inconclusive: 35.5 µM [inhibitor, partial curve].

N#Cc1nc(-c2ccc(OCc3ccccc3)cc2)oc1NCCCn1ccnc1 was tested. Which “activity change, negative = displacement” value did it give?
Its value is inactive: -11.5%.

How did the Potency turn out when CCN(C(=O)CSc1ncccc1C(=O)O)C1CCCCC1 was run?
Its Potency is inconclusive: 39.8 µM [inhibitor, single point].

Which “activity change, negative = displacement” value does the source give for CC(/C=N/NC(=O)c1cccc(F)c1)=C\c1ccccc1 here?
Its value is inactive: -15%.

For Cc1ccc(OCc2cc(C(=O)N(C)CC3CCOCC3)no2)cc1C, which Potency is on record?
Its Potency is inconclusive: 14.1 µM [inhibitor, partial curve].

For CC1=CCC2C(=O)N(C(C)c3ccccc3)C(=O)C2C1 (centres undefined), which Potency is on record?
Its Potency is inconclusive: 11.2 µM [inhibitor, partial curve].

Cc1[nH]n2c(=O)cc(-c3ccc(Cl)cc3)nc2c1-c1ccccc1 was tested. Which “activity change, negative = displacement” value did it give?
The value was inactive: 7.74%.

Which Potency does the source give for CC(=O)c1ccc(OCc2cc(C(=O)NCC3CCCCO3)no2)cc1 (centres undefined) here?
Its Potency is inconclusive: 28.2 µM [inhibitor, partial curve].

How did the Potency turn out when CC(C)C(=O)OCC(=O)Nc1ccc2c(c1)CCC2 was run?
The Potency was inconclusive: 35.5 µM [inhibitor, partial curve].

COC(=O)CSC1=C(C#N)C(c2ccccc2F)CC(=O)N1 (centres undefined) was tested. Which “activity change, negative = displacement” value did it give?
Its value is inactive: -3.96%.

Reference: PubChem BioAssay AID485281 (National Center for Advancing Translational Sciences (NCATS), 2010)
